In patent publication US20180057596A1 one finds IC50 (pM), IL-4 induced TF-1 cell proliferation and IC50 (pM), IL-13 induced TF-1 cell proliferation data, which are given here for 1 molecule.

The target in the experiment is human IL-4Rα on TF-1 cells (human) (UniProt P24394). Briefly: cell-based or functional assay.
Chain of UniProt P24394 (P24394 26-825): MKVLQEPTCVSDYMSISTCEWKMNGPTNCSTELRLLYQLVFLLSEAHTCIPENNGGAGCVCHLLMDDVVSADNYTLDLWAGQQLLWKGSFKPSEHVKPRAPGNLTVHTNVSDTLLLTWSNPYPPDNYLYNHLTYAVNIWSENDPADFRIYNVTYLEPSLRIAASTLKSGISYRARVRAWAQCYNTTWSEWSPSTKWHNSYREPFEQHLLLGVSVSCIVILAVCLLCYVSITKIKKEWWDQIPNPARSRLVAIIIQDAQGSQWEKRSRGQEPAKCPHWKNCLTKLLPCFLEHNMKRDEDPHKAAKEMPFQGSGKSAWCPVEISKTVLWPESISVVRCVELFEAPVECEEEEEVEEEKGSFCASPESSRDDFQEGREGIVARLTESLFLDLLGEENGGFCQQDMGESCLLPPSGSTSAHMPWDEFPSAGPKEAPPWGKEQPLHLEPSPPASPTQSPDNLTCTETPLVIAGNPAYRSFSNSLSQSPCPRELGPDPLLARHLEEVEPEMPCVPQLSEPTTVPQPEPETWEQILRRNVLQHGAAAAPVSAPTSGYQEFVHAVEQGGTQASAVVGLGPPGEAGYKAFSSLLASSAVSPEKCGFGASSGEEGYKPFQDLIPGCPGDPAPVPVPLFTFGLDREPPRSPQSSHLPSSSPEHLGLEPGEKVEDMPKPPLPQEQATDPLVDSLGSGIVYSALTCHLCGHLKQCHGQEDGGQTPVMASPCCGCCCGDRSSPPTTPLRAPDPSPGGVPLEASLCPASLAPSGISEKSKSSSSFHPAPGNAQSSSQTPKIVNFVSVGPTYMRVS

B1: 12B5 (antibody, from another filing, V domains shown)
VH: EVQLVQSGGGLVHPGGSLRLSCAGSGFTFSRNAMFWVRQAPGKGLEWVSGIGTGGATNYADSVKGRFTISRDNAKNSLYLQMNSLRAEDMAVYYCARGRYYFDYWGQGTLVTVSS
VL: [about 100 residues left out]
B1 had an IC50 (pM), IL-4 induced TF-1 cell proliferation of 42.7 pM and an IC50 (pM), IL-13 induced TF-1 cell proliferation of 79.1 pM.
